From PubChem BioAssay (Tox21)
Where “and” joins values, the source holds several entries; their conditions need not be identical. Equal values may be shown once. This list was built around the results that the source calls inconclusive (neither active nor inactive); the mix of calls is not that of the screen. For some of these results: Potencies beside an inconclusive call are fits to weak or partial responses and may not hold up. Calls of active or inactive are those of the source. Unless noted, calls follow the shape of the dose curve; as a rule, active = well fitted curve in the direction sought with a large enough effect in the repeat runs; inconclusive = weak or mixed curves; inactive = no such curve, though single readings can be large; an effect the other way counts as inactive or inconclusive.

Assays:
[1] = A CellTox Green Cytotoxicity Assay to monitor cytotoxicity in HepG2 cells - 8 hour (AID 1224890); also: nearly all actives have a fitted effect of over 45% in size
Summary of the method: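 Measurements at 0, 8, 16, 24, 32 and 40 h of treatment captured CellTox Green fluorescence in HepG2 cells that had been co-plated with reagent and preincubated 5 h at 37 C/5% CO2.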

[2] = qHTS assay to identify small molecule antagonists of the androgen receptor (AR) signaling pathway using the MDA cell line in the presence of 0.5 nM R1881 - cell viability counter screen (AID 1259242); also: nearly all actives have a fitted effect of over 45% in size
Summary of the method: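 Concentration-response screen of compounds for toxicity in MDA-kb2 reporter cells: 16 hr at 37C with 0.5 nM R1881, endpoint live-cell protease fluorescence measured in the reporter wells.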

[3] = qHTS assay to identify small molecule agonists of the sonic hedgehog signaling (Shh) pathway - cell viability counter screen (AID 1259366); also: nearly all actives have a fitted effect of over 50% in size
Summary of the method: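 Stable Gli1-Luc NIH/3T3 clone, 2,000 cells/well. Compound exposure 24hr at 37C. Read-out: CellTiter-Fluor fluorescence.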

[4] = qHTS assay to identify small molecule antagonists of the sonic hedgehog signaling (Shh) pathway - cell viability counter screen (AID 1259367); also: nearly all actives have a fitted effect of over 55% in size
Summary of the method: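 Cytotoxicity was assessed in parallel with Shh reporter activity by measuring live-cell protease fluorescence (CellTiter-Fluor) in NIH/3T3 cells stably carrying Gli1-Luc, treated with compound under conditioned medium stimulation for 23 hr plus 1 hr reagent incubation.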

[5] = qHTS assay to identify small molecule agonists of the androgen receptor (AR) signaling pathway in the presence of an antagonist - cell viability counter screen (AID 1259379); also: nearly all actives have a fitted effect of over 25% in size
Summary of the method: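 MDA-kb2 viability measured by CellTiter-Fluor fluorescence in the same wells as the luciferase signal; nilutamide 3.0uM final; 15-point compound titration; 16 hr at 37C.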

[6] = qHTS assay to identify small molecule phospholipidosis (PLD) inducers (AID 1259344; active = well fitted curve in the direction sought with a large enough effect; inconclusive = small, poorly fitted or top-dose-only effect, or another doubt; inactive = no such curve, though single readings can be large; an effect the other way counts as inactive or inconclusive)
Summary of the method: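 Cells (HepG2, 900 per well) attach for 4 h, receive LipidTOX Red and compound together, incubate 24 h at 37 C, are fixed 30 min with paraformaldehyde/Hoechst, then imaged at one site per well.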

[7] = target: Estrogen receptor beta (Homo sapiens) (UniProt Q92731); assay: qHTS assay to identify small molecule antagonists of the estrogen receptor beta (ER-beta) signaling pathway (AID 1259378; active = well fitted inhibition curve with a large enough effect in the signal ratio in the repeat runs, not every such curve was filed as active; inconclusive = weak or mixed curves, or effect the other way; inactive = no such curve, though single readings can be large or run the other way; the % refers to the signal ratio); settings: ER-beta-UAS-bla HEK293T, beta-lactamase FRET ratio, 16 h; activity, negative = inhibition: at 92.4 µM (top of the series) unless noted
Summary of the method: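 ER-beta-UAS-bla HEK293T (GripTite) cells in 2% charcoal-stripped FBS medium were preincubated 6 hr at 37C, dosed with compound, then stimulated with 1 nM E2 (final) for 16 hr; beta-lactamase reporter read by B/G FRET fluorescence after 2 hr substrate loading.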

[8] = qHTS assay to identify small molecule antagonists of the estrogen receptor alpha (ER-alpha) signaling pathway using the BG1 cell line in the presence of 0.1 nM 17-beta-estradiol - cell viability counter screen (AID 1259241); also: nearly all actives have a fitted effect of over 40% in size
Summary of the method: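 Viability in VM7Luc4E2 cells after 22 hr compound exposure under 0.1 nM 17beta-estradiol stimulation, by CellTiter-Fluor.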

[9] = qHTS assay to identify small molecule agonists of the estrogen receptor beta (ER-beta) signaling pathway - cell viability counter screen (AID 1259380); also: nearly all actives have a fitted effect of over 30% in size
Summary of the method: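 Measured: luminescence from CellTiter-Glo after 30 min at room temperature, added to wells already read for the LiveBLAzer FRET reporter (2 hr substrate); ER-beta-UAS-bla HEK293T cells had 16 hr compound treatment at 37C, 5% CO2.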

[10] = qHTS assay to identify small molecule HDAC inhibitors (AID 1259364);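 also: wild-type HCT-116 cells with endogenous class I/II HDAC activity; nearly all actives have a fitted effect of over 45% in size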
Summary of the method: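 Screening used wild-type human colon HCT-116 cells incubated overnight, dosed with compounds for 2 hours, and assayed with a homogeneous luminogenic HDAC I/II reagent for 30 minutes at room temperature.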

[11] = qHTS assay to identify small molecule antagonists of the sonic hedgehog signaling (Shh) pathway (AID 1259369; calls by dose curve; also: nearly all actives have a fitted effect of over 45% in size)
Summary of the method: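 NIH/3T3 stable Gli1-Luc clone, 2,000 cells/well, 4hr settle; cpd + conditioned medium 24hr; Luc reagent 30min RT; luminescence.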

[12] = target: Estrogen receptor beta (Homo sapiens) (UniProt Q92731); assay: qHTS assay to identify small molecule agonists of the estrogen receptor beta (ER-beta) signaling pathway (AID 1259377; active = well fitted activation curve with a large enough effect in the signal ratio in the repeat runs, not every such curve was filed as active; inconclusive = weak or mixed curves, or effect the other way; the % refers to the signal ratio; as to activation: % is scaled to controls: 0 for no effect and ±100 for the full control effect); settings: ER-beta-UAS-bla HEK293T, beta-lactamase FRET ratio, 16 h
Summary of the method: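 Measured by fluorescence intensity from a B/G FRET beta-lactamase substrate (2 h, room temperature) in ER-beta-UAS-bla HEK293T cells treated with DMSO-dissolved compounds for 16 hr at 37C and 5% CO2.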

[13] = target: Estrogen receptor (Homo sapiens) (UniProt P03372); assay: qHTS assay to identify small molecule antagonists of the estrogen receptor alpha (ER-alpha) signaling pathway using the BG1 cell line in the presence of 0.1 nM 17-beta-estradiol (AID 1259244); also: nearly all actives have a fitted effect of over 50% in size
Summary of the method: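 Compounds were tested against 0.1 nM (final) 17beta-estradiol in VM7Luc4E2 cells, which express full-length ER-alpha and an ERE-luciferase reporter; luminescence was recorded following 22 h exposure.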

[14] = target: Androgen receptor (Homo sapiens) (UniProt P10275); assay: qHTS assay to identify small molecule antagonists of the androgen receptor (AR) signaling pathway using the MDA cell line in the presence of 0.5 nM R1881 (AID 1259243); also: nearly all actives have a fitted effect of over 50% in size
Summary of the method: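 With R1881 held at 0.5 nM (final), compound effects on MMTV-luciferase expression in MDA-kb2 cells were scored by luminescence after a 16 hr, 37C incubation.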

[15] = qHTS assay to identify small molecule antagonists of the estrogen receptor beta (ER-beta) signaling pathway - cell viability counter screen (AID 1259382); also: nearly all actives have a fitted effect of over 55% in size
Summary of the method: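 Readout: luminescence, CellTiter-Glo, same wells as bla assay. System: ER-beta-UAS-bla GripTite HEK293T, 2% charcoal-stripped FBS. Exposure: compounds plus 1nM 17-beta-estradiol, 16 hr, 37C.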

[16] = activation: at 92.4 µM (top of the series) unless noted
Potency is read from the fitted curve at half-maximal effect; tags tell the direction and shape of the fitted curve or compound fluorescence and quenching.

Sequence of UniProt Q92731 (Q92731 whole entry, looked up): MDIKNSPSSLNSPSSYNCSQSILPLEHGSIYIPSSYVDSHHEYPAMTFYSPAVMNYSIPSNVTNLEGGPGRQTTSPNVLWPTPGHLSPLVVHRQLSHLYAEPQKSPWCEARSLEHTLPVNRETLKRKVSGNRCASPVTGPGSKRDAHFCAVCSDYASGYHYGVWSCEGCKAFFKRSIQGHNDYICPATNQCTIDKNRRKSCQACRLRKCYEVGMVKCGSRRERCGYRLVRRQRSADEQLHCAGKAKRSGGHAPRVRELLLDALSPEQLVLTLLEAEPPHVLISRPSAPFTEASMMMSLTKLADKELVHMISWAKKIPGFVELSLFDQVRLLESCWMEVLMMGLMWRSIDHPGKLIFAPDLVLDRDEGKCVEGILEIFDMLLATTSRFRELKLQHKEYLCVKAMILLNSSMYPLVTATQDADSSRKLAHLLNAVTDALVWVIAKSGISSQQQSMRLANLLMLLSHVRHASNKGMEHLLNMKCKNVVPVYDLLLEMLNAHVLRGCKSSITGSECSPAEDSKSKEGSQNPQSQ
Sequence of UniProt P10275 (P10275 whole entry, looked up): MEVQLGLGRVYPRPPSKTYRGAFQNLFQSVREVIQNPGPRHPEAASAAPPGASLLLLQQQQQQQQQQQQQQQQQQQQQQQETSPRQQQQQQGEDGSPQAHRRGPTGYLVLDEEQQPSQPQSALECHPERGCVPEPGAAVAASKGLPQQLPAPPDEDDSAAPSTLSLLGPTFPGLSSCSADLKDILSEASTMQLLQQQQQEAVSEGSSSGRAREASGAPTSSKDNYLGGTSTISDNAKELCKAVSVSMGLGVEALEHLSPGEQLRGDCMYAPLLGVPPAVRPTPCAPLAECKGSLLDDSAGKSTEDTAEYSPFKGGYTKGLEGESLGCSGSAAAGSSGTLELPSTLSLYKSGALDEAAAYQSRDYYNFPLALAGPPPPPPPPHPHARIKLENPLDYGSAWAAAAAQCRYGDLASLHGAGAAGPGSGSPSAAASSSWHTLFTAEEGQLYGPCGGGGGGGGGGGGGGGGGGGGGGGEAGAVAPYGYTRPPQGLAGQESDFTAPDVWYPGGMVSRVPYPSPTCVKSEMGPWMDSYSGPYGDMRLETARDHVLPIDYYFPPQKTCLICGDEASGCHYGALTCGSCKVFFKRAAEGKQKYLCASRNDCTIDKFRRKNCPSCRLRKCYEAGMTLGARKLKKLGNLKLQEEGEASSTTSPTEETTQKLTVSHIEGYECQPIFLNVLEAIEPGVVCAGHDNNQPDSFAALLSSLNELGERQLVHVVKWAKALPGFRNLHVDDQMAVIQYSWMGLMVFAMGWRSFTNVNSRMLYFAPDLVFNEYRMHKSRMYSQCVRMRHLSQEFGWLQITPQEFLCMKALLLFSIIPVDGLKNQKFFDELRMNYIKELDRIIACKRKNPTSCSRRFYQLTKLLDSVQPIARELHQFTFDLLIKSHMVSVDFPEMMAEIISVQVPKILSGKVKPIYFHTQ
Sequence of UniProt P03372 (P03372 whole entry, looked up): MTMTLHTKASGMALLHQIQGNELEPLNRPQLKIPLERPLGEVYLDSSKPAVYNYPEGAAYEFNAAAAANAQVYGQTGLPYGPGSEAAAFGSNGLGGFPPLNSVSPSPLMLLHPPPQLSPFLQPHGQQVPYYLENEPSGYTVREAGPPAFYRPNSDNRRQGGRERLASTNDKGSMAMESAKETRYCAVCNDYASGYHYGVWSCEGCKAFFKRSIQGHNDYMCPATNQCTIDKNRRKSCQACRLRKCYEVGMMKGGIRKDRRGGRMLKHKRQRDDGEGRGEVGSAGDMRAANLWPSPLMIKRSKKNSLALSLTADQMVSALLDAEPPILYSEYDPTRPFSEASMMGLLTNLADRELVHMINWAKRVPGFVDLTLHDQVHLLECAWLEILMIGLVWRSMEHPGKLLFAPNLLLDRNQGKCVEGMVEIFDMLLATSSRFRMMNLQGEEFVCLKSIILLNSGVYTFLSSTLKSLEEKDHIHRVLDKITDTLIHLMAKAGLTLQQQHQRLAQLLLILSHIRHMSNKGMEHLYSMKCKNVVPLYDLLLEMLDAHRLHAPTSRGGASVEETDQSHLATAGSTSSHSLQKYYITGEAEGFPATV

## CC1=NN(c2ccc(S(=O)(=O)O)cc2)C(=O)C1N=Nc1ccccc1 (stereo not given)
[1]
  Potency: inconclusive: 27.5 µM [activator, partial curve, poor fit]
[2]
  Potency: inconclusive: 61.1 µM [cytotoxic]
[3]
  Potency: inconclusive: 27.3 µM [cytotoxic, partial curve]
[4]
  Potency: inconclusive: 27.3 µM [cytotoxic, partial curve]
[5]
  Potency: active: 30.6 µM

## OCCN1CCN(CCCN2c3ccccc3Sc3ccc(C(F)(F)F)cc32)CC1
[1]
  Potency: inconclusive: 10.7 µM [activator, partial curve, poor fit]
[2]
  Potency: inconclusive: 33.5 µM [cytotoxic]
[6]
  Potency: inconclusive: 6.31 µM [activator, partial curve]
[7]
  Potency: inconclusive: 15 µM [rising, partial curve]
[5]
  Potency: inconclusive: 29.8 µM [cytotoxic, single point]

## Cc1oc(-c2ccccc2)nc1CCOc1cccc2c1ccn2CCC(=O)O
[1]
  Potency: inactive
[8]
  Potency: inconclusive: 30.6 µM [cytotoxic, partial curve]
[3]
  Potency: active: 21.7 µM
[4]
  Potency: active: 6.86 µM
[7]
  Potency: active: 30.6 µM
[5]
  Potency: inconclusive: 30.6 µM [cytotoxic, partial curve]
[9]
  Potency: active: 10.9 µM

## Cc1cc(C)c(/C=C2\C(=O)Nc3ccccc32)[nH]1
[1]
  Potency: active: 19 µM
[8]
  Potency: inconclusive: 4.73 µM [cytotoxic, full curve, poor fit]
[10]
  Potency: inconclusive: 26.6 µM [inhibitor, partial curve]
[11]
  Potency: inconclusive: 0.0106 µM [inhibitor, full curve]
[12]; [16]
  Potency: inconclusive: 29.8 µM [rising, partial curve]
[7]
  Potency: inconclusive: 33.5 µM [rising, single point]
[9]
  Potency: active: 11.9 µM

## Cc1cccc(C(C)(C)C)c1O
[1]
  Potency: inconclusive: 61.7 µM [activator, single point]

## CCCCCCCCCCCCCC[N+](C)(C)Cc1ccccc1
[1]
  Potency: inconclusive: 55.8 µM [activator, single point]
[8]
  Potency: inconclusive: 69.6 µM [cytotoxic, single point]
[2]
  Potency: active: 49.3 µM and inconclusive: 26.6 µM [cytotoxic, partial curve] and inconclusive: 20 mM [cytotoxic, partial curve]
[13]
  Potency: inconclusive: 26.6 µM [inhibitor, single point]
[3]
  Potency: inconclusive: 29.8 µM [cytotoxic, partial curve, poor fit] and inconclusive: 25.1 mM [cytotoxic, single point]
[11]
  Potency: inconclusive: 141 µM [inhibitor, full curve, poor fit]
[5]
  Potency: active: 43.9 µM and active: 29.8 µM and active: 14.1 mM
[9]
  Potency: active: 27.7 µM and active: 10.6 µM and active: 11.2 mM

## O=C(c1ccccc1)c1ccccc1O
[1]
  Potency: inconclusive: 49 µM [activator, single point]
[14]
  Potency: inconclusive: 49.7 µM [inhibitor, partial curve] and inconclusive: 24.3 µM [inhibitor, partial curve]
[4]
  Potency: inactive
[12]; [16]
  activation: inconclusive: 7.03%
[12]; at 92.4 µM (top of the series)
  activation: inactive: -1.46%

## CNCc1cc(F)ccc1Oc1ccc(Cl)c(Cl)c1
[1]
  Potency: inconclusive: 49 µM [activator, partial curve, poor fit]
[2]
  Potency: inconclusive: 68.6 µM [cytotoxic, single point]
[3]
  Potency: inconclusive: 61.1 µM [cytotoxic, partial curve]
[4]
  Potency: inconclusive: 77 µM [cytotoxic, partial curve, poor fit]
[11]
  Potency: active: 12.2 µM
[7]
  Potency: inconclusive: 48.6 µM [inhibitor, partial curve]
[9]
  Potency: active: 27.3 µM
[15]
  Potency: inconclusive: 27.3 µM [cytotoxic, partial curve]

## CC(NCCC(c1ccccc1)c1ccccc1)c1ccccc1 (stereo not given)
[1]
  Potency: active: 23.9 µM
[2]
  Potency: active: 21.1 µM
[13]
  Potency: inconclusive: 33.5 µM [inhibitor]
[6]
  Potency: inconclusive: 15.8 µM [activator, partial curve, poor fit]
[3]
  Potency: inconclusive: 33.5 µM [cytotoxic, single point]
[4]
  Potency: inconclusive: 33.5 µM [cytotoxic, single point]
[12]; [16]
  Potency: inconclusive: 18.8 µM [rising, partial curve, poor fit]
[7]
  Potency: active: 26.6 µM
[5]
  Potency: active: 23.7 µM
